# Reference: PubChem BioAssay AID1768 (National Center for Advancing Translational Sciences (NCATS), 2009)
# The campaign covered roughly 270,000 compounds. About 620 (0.23%) were called active. Inconclusive means that the source gave no clear call. Such entries were picked first, then a sample of the others. The call rests on the fitted dose curve; in most records, active means well fitted inhibition curve with a large enough effect in the polarisation, with a control signal flat (not every such curve was filed as active); inconclusive means small, poorly fitted or top-dose-only effect, or effect the other way, or a change in a side signal; inactive means no such curve, though single readings can be large or run the other way; the % refers to the polarisation. Where the call is inconclusive, the potency comes from a doubtful curve fit. “Side channel” marks fits to a control or component signal instead of the main read-out.
# Target: Menin (Homo sapiens) (UniProt O00255)
# UniProt O00255, sequence (O00255 whole entry, looked up): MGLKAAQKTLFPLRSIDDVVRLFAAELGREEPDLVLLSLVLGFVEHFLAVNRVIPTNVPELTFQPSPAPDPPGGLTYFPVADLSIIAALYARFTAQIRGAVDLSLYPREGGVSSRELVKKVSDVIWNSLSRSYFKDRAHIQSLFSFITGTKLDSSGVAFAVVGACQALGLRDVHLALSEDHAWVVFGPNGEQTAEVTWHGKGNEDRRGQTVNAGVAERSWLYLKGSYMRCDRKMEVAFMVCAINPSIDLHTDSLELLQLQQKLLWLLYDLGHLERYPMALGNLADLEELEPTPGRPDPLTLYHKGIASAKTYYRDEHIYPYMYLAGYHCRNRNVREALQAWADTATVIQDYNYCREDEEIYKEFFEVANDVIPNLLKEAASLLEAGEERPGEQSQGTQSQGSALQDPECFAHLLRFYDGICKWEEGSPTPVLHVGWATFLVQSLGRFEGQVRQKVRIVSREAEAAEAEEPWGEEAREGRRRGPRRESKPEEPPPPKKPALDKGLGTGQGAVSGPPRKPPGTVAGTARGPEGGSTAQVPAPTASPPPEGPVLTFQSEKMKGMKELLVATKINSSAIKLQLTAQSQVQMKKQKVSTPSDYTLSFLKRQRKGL
# Test: qHTS Assay for Inhibitors Targeting the Menin-MLL Interaction in MLL Related Leukemias: Competition With Texas Red Labeled MLL-derived Mutant Peptide; on FP activity change, negative = inhibition: % of control where 0% means no effect
# Settings: fluorescence polarization; FP activity change, negative = inhibition: at 61.6 µM (top of the series)
# Potency means the concentration at half of the fitted maximal effect; tags describe the fitted curve by direction and shape or compound fluorescence and quenching.
SMILES,Potency,"FP activity change, negative = inhibition"
COc1ccc(/C=C/C2=NC(=C\N(C)C)/C(=O)O2)cc1,"inconclusive: 14.1 µM [quencher, side channel, partial curve]",
CCN1C(=O)/C(=C\C=C\c2ccccc2[N+](=O)[O-])SC1=S,"inconclusive: 15.8 µM [quencher, side channel, partial curve]",
COc1ccc(N2CCN(C(=O)CSc3nnc(-c4cccnc4)n3-c3ccccc3)CC2)cc1,"inconclusive: 39.8 µM [fluorescent, side channel, single point]",
O=C(COC(=O)C12CC3CC(CC(C3)C1)C2)Nc1ccc2[nH]c(=O)[nH]c2c1,"inconclusive: 39.8 µM [fluorescent, single point]",
Cc1[nH]n(-c2ccc(Cl)c(Cl)c2)c(=O)c1CCO,"inconclusive: 28.2 µM [quencher, side channel, single point]",
COc1cc(N/C=C2\CC(=O)NC(C)=C2C#N)cc(OC)c1OC,"inconclusive: 39.8 µM [quencher, side channel, single point]",
O=c1o[nH]c(-c2ccccc2)c1N=Nc1c(F)cccc1Cl,"inconclusive: 14.1 µM [quencher, side channel, partial curve]",
O=c1c2c3c(sc2ncn1/N=C/c1cccnc1)CCCC3,,inactive: -0.304%
Cc1cccc(C)c1NC(=O)CSc1nnc(-c2ccco2)c(-c2ccco2)n1,"inconclusive: 3.55 µM [quencher, side channel, partial curve]",
O=C(COC(=O)c1ccccc1C(=O)c1ccc(Cl)cc1)NCCc1ccccc1,,inactive: -0.679%
CN(c1ccc(C(=O)NCc2ccccn2)cc1)S(C)(=O)=O,"inconclusive: 1.78 µM [inhibitor, partial curve]",
CN(C(=O)c1cnc(N2CCN(c3ncccn3)CC2)c2ccccc12)c1ccc(Cl)cc1,"inconclusive: 2.24 µM [fluorescent, side channel, full curve, poor fit]",
Cn1cc(CN2CCC(C(O)CCc3ccccc3)CC2)c(-c2ccccc2F)n1 (stereo unspecified),"inconclusive: 31.6 µM [fluorescent, side channel, single point]",
CC(C)c1ccccc1-n1c(SCC(=O)N2CCN(c3ccccc3)CC2)nnc1-c1cccnc1,"inconclusive: 3.98 µM [inhibitor, single point]",
CCCc1cc(=O)[nH]c(N2CCN(Cc3ccc4c(c3)OCO4)CC2)n1,"inconclusive: 22.4 µM [inhibitor, single point]",
Cc1ccccc1-n1ccnc1SCC(=O)O,,inactive: 0.0089%
